In US20100003258A1:
Values belong to the binder of their own block, whether it stands above or below them.

Biological target: human FGFR3 IIIb on FDCP-1 cells (FDCP-FGFR3 IIIb #122) (human), P22607
Assay: cell-based or functional assay

Chain of human FGFR3 IIIb on FDCP-1 cells (FDCP-FGFR3 IIIb #122) (human), P22607 (P22607 23-806): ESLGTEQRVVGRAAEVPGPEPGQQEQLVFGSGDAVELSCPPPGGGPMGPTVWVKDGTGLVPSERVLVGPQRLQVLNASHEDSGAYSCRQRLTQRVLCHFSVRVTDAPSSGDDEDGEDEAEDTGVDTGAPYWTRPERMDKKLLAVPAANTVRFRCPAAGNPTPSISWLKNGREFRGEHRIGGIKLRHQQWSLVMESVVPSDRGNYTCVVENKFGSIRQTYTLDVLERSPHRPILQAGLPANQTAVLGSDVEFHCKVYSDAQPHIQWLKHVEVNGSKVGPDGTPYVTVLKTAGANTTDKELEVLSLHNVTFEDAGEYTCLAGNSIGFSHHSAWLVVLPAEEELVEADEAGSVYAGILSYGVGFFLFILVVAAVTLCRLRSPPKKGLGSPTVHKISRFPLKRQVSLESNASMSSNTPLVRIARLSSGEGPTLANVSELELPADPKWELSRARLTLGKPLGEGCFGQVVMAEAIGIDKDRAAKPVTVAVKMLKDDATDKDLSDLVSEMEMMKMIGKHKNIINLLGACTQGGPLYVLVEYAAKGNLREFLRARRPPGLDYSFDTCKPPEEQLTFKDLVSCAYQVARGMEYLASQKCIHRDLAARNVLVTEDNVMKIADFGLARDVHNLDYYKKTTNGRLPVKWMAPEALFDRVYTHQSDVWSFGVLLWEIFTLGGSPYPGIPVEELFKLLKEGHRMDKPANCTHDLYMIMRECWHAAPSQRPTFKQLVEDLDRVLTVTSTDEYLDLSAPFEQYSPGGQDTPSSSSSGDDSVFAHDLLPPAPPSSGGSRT

FDCP FGFR3 IIIb Proliferation IC50, Average IC50: 3.73 nM
B1: Humanized 15D8 (antibody, human IgG1, kappa)
heavy: EVQLVQSGAEVKKPGESLKISCKGSGYSFTSYNMYWVRQMPGKGLEWMGYIDPYNGGTSYNQKFKGKATLTVDKSISTAYLQWSSLKASDTAMYYCAREGGNYEAWFAYWGQGTLVTVSSASTKGPSVFPLAPSSKSTSGGTAALGCLVKDYFPEPVTVSWNSGALTSGVHTFPAVLQSSGLYSLSSVVTVPSSSLGTQTYICNVNHKPSNTKVDKRV[letters of human IgG1 Fc omitted]
light: DIQLTQSPSSLSASVGDRVTITCSASSSVSYMYWFQQKPGKAPKPLIYLTSYLASGVPSRFSGSGSGTDFTLTISSLQPEDFATYYCQQWSSYPLTFGGGTKVEIKRTVAAPSVFIFPPSDEQLKSGTASVVCLLNNFYPREAKVQWKVDNALQSGNSQESVTEQDSKDSTYSLSSTLTLSKADYEKHKVYACEVTHQGLSSPVTKSFNRGEC

FDCP FGFR3 IIIb Proliferation IC50, Average IC50: 1.47 nM
B2: Chimeric 15D8 (antibody, human IgG1, kappa)
heavy: EIQLQQSGPELVKPGASVKVSCKASGYAFTSYNMYWVKQSHGKSLEWIGYIDPYNGGTSYNQKFKGKATLTVDKSSSTAYMHLNSLTSEDSAVYYCAREGGNYEAWFAYWGQGTLVTVSAASTKGPSVFPLAPSSKSTSGGTAALGCLVKDYFPEPVTVSWNSGALTSGVHTFPAVLQSSGLYSLSSVVTVPSSSLGTQTYICNVNHKPSNTKVDKRV[letters of human IgG1 Fc omitted]
light: QIVLTQSPALMSASPGEKVTMTCSASSSVSYMYWYQQKPRSSPKPWIYLTSYLASGVPARFSGSGSGTSYSLTISSMEAEDAATYYCQQWSSYPLTFGAGTKLELKRTVAAPSVFIFPPSDEQLKSGTASVVCLLNNFYPREAKVQWKVDNALQSGNSQESVTEQDSKDSTYSLSSTLTLSKADYEKHKVYACEVTHQGLSSPVTKSFNRGEC
